Reference: PubChem BioAssay AID1963576 (National Center for Advancing Translational Sciences (NCATS), 2024)
About 60 (0.1%) of roughly 46,000 compounds were called active. Not shown: some 3% with an inconclusive outcome. Calls come from the whole dose curve; as a rule, active = well fitted inhibition curve with a large enough effect; inconclusive = small, poorly fitted or top-dose-only effect; inactive = no such curve, though single readings can be large or run the other way. The list shows a part of the results.

Assay: Primary qHTS assay for Inhibitors of ovarian cancer metastasis using an organotypic tumor microenvironment (TME) model.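 For activity change, negative = inhibition: plate controls were DMSO wells for no effect and tomatine positive control wells for full effect.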 Note: nearly all actives have a fitted effect of over 65% in size.
Settings: SKOV3ip1-GFP adhesion/invasion on 3D omental model, fluorescence; series mostly up to 45.8 µM; activity change, negative = inhibition: at the top concentration
Summary of the method: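 Primary human omental fibroblast/mesothelial 3D culture pre-formed 48 h. SKOV3ip1-GFP cells added with compounds (0.36-46 umol/L), incubated 2 h RT/16 h 37 C, fixed; GFP cells quantified at 488/509 nm.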

Activity change, negative = inhibition, inactive:
Cc1nn(C)c2c1c(C(F)(F)F)cc(=O)n2CC(=O)NCCC(C)C 9.05%, Cc1cccc(-c2nc3scc(CCNS(=O)(=O)c4ccc(Oc5ccccc5)cc4)n3n2)c1 -22.7%, O=C(O)c1ccc(Nc2nc3ccccc3n3cnnc23)cc1 6.88%, COc1ccc(C2CC(c3ccccc3)=NN2c2ccc(S(N)(=O)=O)cc2)cc1 (stereo unspecified) 11.2%, O=C(CN1CCN(Cc2cccc(Cl)c2)C1=O)NCc1ccc(F)cc1 13.2%, CCc1ccccc1NS(=O)(=O)c1ccc2c(c1)CCN2C(=O)C1CC1 -4.44%, COc1ccc(OC)c2sc(N3CCN(C(=O)c4ccc5c(c4)CCCC5)CC3)nc12 9.87%, CCC1CCc2nc3sc(C(=O)Nc4ccc(C)cc4)c(N)c3cc2C1 (stereo unspecified) -4.64%, CCCCCn1c(=O)[nH]c2cc(C(=O)NCc3ccc(Cl)cc3)ccc2c1=O 45.2%, Cn1c(=O)c2cc(C(=O)NCCCN3CCN(c4cccc(Cl)c4)CC3)sc2c2ccccc21 1.18%, CCOc1ccc(CCNC(=O)c2nn(-c3ccc(OC)c(Cl)c3)c(=O)c3c2c2ccccc2n3C)cc1OCC 17.9%, CC(C)NC(=O)c1ccc(-n2c(-c3ccccc3)cc3c2CCCC3)cc1 0.8%, CCc1ccc(NC(=O)CSc2nc(-c3ccccc3Cl)nc3c2Cc2c(CO)cnc(C)c2O3)cc1 -25.2%, COc1ccc(OCC(=O)Nc2ccc3c(c2)nc(CCNC(=O)c2ccco2)n3C)cc1 -26.8%, O=C(COc1ccc(Br)cc1Cl)Nc1ncn[nH]1 13.4%, O=C(Nc1ccc(Br)cc1)c1ccc(F)c(S(=O)(=O)N2CCCc3ccccc32)c1 -0.767%, CC(C)Cn1c(=O)c2sccc2n2c(CCCC(=O)NCCc3ccc(Cl)cc3)nnc12 -3.71%, CCOC(=O)c1ccc(CN(Cc2ccc(Cl)cc2Cl)S(=O)(=O)c2ccc(F)c(C)c2)cc1 -9.15%, COCCOc1ccc2c(c1)ncn2-c1ccc2cccc(N3CCC(N)CC3)c2n1 4.73%, CCC(=O)N1CCc2cc(S(=O)(=O)NC(CC(C)C)C(=O)NCCc3cccc(C)c3)ccc21 (stereo unspecified) 6.72%, COc1cccc(NC(=O)CSCc2cc(=O)c3ccc(C)c(C)c3[nH]2)c1 0.298%, Cc1ccc(NC(=O)CSc2nccn2Cc2ccco2)cc1Cl -2.15%, O=c1ccc2cc(S(=O)(=O)NCc3ccc(Br)cc3)ccc2[nH]1 -26.3%, COc1ccc(OC)c(CNS(=O)(=O)c2ccc3[nH]c4c(c3c2)CCCCC4)c1 14.4%, Cn1c(=O)c2c(n3c4ccccc4nc13)NC(=O)CC2c1cccc(F)c1 (stereo unspecified) 12.6%, O=C(CCCCn1c(=O)c2ccccc2n(Cc2ccccc2Cl)c1=O)NCc1ccc2c(c1)OCO2 -16.6%, Cc1cc(NC(=O)COCc2cc(-c3ccc(F)cc3)on2)ccc1Br -6.95%, CCNc1ccc(-c2nc(-c3ccccn3)no2)cc1[N+](=O)[O-] -5.79%, CC(C)Oc1cccc(C(=O)Nc2ccc3oc(-c4cccc(Cl)c4)nc3c2)c1 -2.75%, CCOc1ccc(CCNS(=O)(=O)c2c(C)nc3scc(C)n3c2=O)cc1OCC -13%, CCCn1c2ccccc2c2cnn(CC(=O)N3CCN(c4ccccc4F)CC3)c(=O)c21 16.4%, CC(=O)N1CCCc2cc(S(=O)(=O)NCc3cccc(C)c3)ccc21 9.46%, COc1ccc(CNC(=O)CCC2N=C3c4ccccc4N=C(SCc4cccc(F)c4)N3C2=O)cc1 (stereo unspecified) 6.36%, O=c1c2cnn(-c3ccc(F)cc3)c2ncn1Cc1cccc(Cl)c1 3.46%, CCCN(CCC)C(=O)Cn1nnc2sc(-c3ccccc3)cc2c1=O 4.3%, Cc1ccc(C(=O)c2cn(Cc3cccc(C)c3)c3nc(C)ccc3c2=O)cc1 7.07%, O=C(C=Cc1ccc(CN(CCO)CCc2c[nH]c3ccccc23)cc1)NO -1.67%, COC(=O)c1cc(S(=O)(=O)N2CCN(c3ccc(OC)cc3)CC2)c[nH]1 6.97%, Cc1cc(C)n2c(Nc3ccc4c(c3)OCCO4)c(-c3ccc(Cl)cc3)nc2n1 9.1%, CC(C)CC(=O)Nc1nc2nc(-c3ccccc3)cc(=O)n2[nH]1 1.16%, CCCCOc1ccc(C2=NC(c3cccs3)=Nc3ccc(CC)cc3N2)cc1 0.319%, COC(=O)c1c(Oc2ccc(OC)cc2)nnc(-c2ccccc2)c1-c1ccccc1 -13.1%, CCCN1CCN(C(=O)Cn2c(-c3cccs3)cc3ccccc32)CC1 -19.4%, Cc1ccc(NC(=O)c2cnc(N3CCCCC3)c3ccccc23)c(C)c1 7.28%, Cc1cc(N2CCCCC2)nc2ccc(NC(=O)/C=C/c3ccc(OC(C)C)cc3)cc12 -11.6%, Cc1ccc(CNC(=O)c2cccn2-c2nnc(N3CCCC3)s2)cc1 -2.32%, Cc1ccc2c(CC(=O)Nc3ccc(S(=O)(=O)N4CCCCC4C)cc3)coc2c1 (stereo unspecified) -6.96%, Cn1cc(-c2[nH]c3cc(NC(=O)[C@H](N)C4CCCCC4)cc4c3c2C=NNC4=O)cn1 21.9%, CCOc1ccccc1CNC(=O)c1ccc(N2Cc3ccccc3Oc3ncccc32)s1 7.69%, COc1ccc(CNC(=O)CCCn2nc(C)c3sc4ccccc4c3c2=O)cc1OC -3.84%, O=C(Nc1ccc(Br)cc1F)C1CCN(c2nc3ccccc3[nH]2)CC1 -9.72%, CCC1CCCCN1CCCNC(=O)CN1C(=O)c2cccnc2Oc2ccc(C)cc21 (stereo unspecified) -7.18%, CCOc1ccc2nc(N3CCC(C(=O)Nc4ccccc4CC)CC3)sc2c1 -9.59%, Cc1ccc(CNC(=O)CCc2c(C)c3ccc(O)c(C)c3oc2=O)cc1 0.939%, CCOc1cc2[nH]c(=O)n(CCCCC(=O)N3CCN(c4ccc(OC)cc4)CC3)c(=O)c2cc1OCC -1.15%, CCOc1ccc(C(=O)Nc2nnc(S(=O)(=O)Nc3ccccc3)s2)cc1 29.9%, Cc1ccc(S(=O)(=O)c2[nH]c(-c3ccccc3)nc2SCC(N)=O)cc1 -28.4%, COc1ccc(NC(=O)CCn2c(=O)c3cccn3c3cccnc32)cc1Cl -1.73%, CC1(C)CNc2cc(NC(=O)c3cccnc3NCc3ccncc3)ccc21 5.95%, Cc1ccc(CCNc2ncnc3onc(-c4ccc(F)cc4)c23)cc1 4.3%, COc1cccc(CNC(=O)Cn2c(=O)n3nc(-c4cccc(F)c4)nc3c3ccccc32)c1 -2.43%, CCN(CC)C(=O)c1sc2c(c1C)c(=O)n(-c1ccc(Cl)c(Cl)c1)c(=O)n2Cc1cc(=O)n2ccccc2n1 -9.83%, CC(C)C(=O)N1c2nc(-c3ccco3)nn2C2(CCCCC2)[C@@H]2CCCC[C@@H]21 -13.6%, CC(=O)Nc1ccc(S(=O)(=O)N2CCC(c3nnc(-c4ccc(C)cc4)o3)CC2)cc1 -3.81%, Cc1oc2c(cc(NS(=O)(=O)c3ccc(C(C)C)cc3)c3ccccc32)c1C(=O)O 4.05%, COc1ccc(-n2ncc3c2ncn2nc(COc4ccc(Cl)cc4)nc32)cc1 1.51%, COc1ccc(CNC(=O)C2=C(C)C(=O)OC23CCCCC3)cc1 1.79%, CCCSc1nnc2c(n1)OC(c1ccc(Br)s1)Nc1ccccc1-2 (stereo unspecified) 3.99%

outcome, inactive:
CCN(c1ccccc1C)S(=O)(=O)c1ccc(N2CCCCS2(=O)=O)cc1, c1ccc(N2CCN(Cc3cccn3-c3nnc(N4CCN(C5CCCCC5)CC4)s3)CC2)cc1, CCc1ccc(-c2nn(CC(=O)NC3CCCCC3)c3c2cnc2ccc(C)cc23)cc1, COc1ccccc1C(=O)NCCn1cc(SCc2ccc(C)cc2)c2ccccc21, COc1ccc(C2CC(=O)N(Cc3ccc(F)cc3)c3ccccc3S2)cc1OC (stereo unspecified), Cc1nn(-c2ccccc2)c(-n2cccc2)c1C(=O)NCCc1ccc(Cl)cc1, CCc1ccc2nc(N(Cc3cccnc3)C(C)=O)sc2c1, Cc1ccc(C)c(NC(=O)N2CCC(CN3CCOCC3)CC2)c1, COc1cccc(N2CCN(C(=O)CCCn3c(=O)[nH]c4ccc(Br)cc4c3=O)CC2)c1, CCOc1ccc(CNC(=O)c2ccc3nc(CC)c(CC)nc3c2)cc1, Cc1cc(C)n(-c2nc3ccccc3nc2Nc2ccc(Cl)cc2Cl)n1, CCn1c(=O)c2cc(C(=O)NCCCOC)sc2c2ccccc21, CC(C)Oc1ccc(CNS(=O)(=O)c2ccc3c(c2)C(C)(C)C(=O)N3C)cc1, Cc1ccc(CNC(=O)c2nc(SCc3ccc(F)cc3)ncc2Cl)cc1, COc1ccc(NC(=O)Cn2c(=O)n(-c3ccccc3)c(=O)c3c4c(sc32)CCCC4)c(OC)c1, Cc1nn2c(=O)cc(COC(=O)c3cccc(NC(=O)COc4ccccc4Cl)c3)nc2s1, COc1ccc(S(=O)(=O)n2nc(C)c(S(=O)(=O)N3CCCCCC3)c2C)cc1, COCCCNC(=O)C1CCN(C(=O)c2cnn(-c3ccccc3)c2-n2cccc2)CC1, COc1cccc(NC(=O)CN2C(=O)CSc3ccc(S(=O)(=O)N4CCCC4)cc32)c1, Cc1cccc(NC(=O)N2CCN(C(=O)c3nsc4ccccc34)CC2)c1C, Cc1ccc(N2C(=O)NC(NS(=O)(=O)c3ccccc3)(C(F)(F)F)C2=O)cc1C (stereo unspecified), COC(=O)COc1ccc2oc(-c3ccc(OC)cc3)cc(=O)c2c1, COc1ccc(N2CCN(C(=O)c3cnn(-c4ccc(F)cc4)c3-n3cccc3)CC2)cc1, Clc1ccc2c(c1)-c1c(cnc3cc(-c4ccccc4)nn13)CO2, CC1CN(C(=O)N2CCC(C(=O)N3CCN(c4ccccc4)CC3)CC2)c2cc(Cl)ccc2O1 (stereo unspecified), CSc1cccc(Nc2cc(C(=O)NCCc3ccc(Cl)cc3)c3ccccc3n2)c1, O=C1CCCc2cc(S(=O)(=O)N3CCCC(C(=O)Nc4ccc(F)c(Cl)c4)C3)ccc2N1 (stereo unspecified), O=C(Cn1c(=O)n(CCCS(=O)(=O)C2CCCCC2)c(=O)c2ccccc21)Nc1ccccc1C(F)(F)F
